Measured values taken from publication PMC4336329 (PLoS ONE, 2015).
The campaign covered roughly 310,000 compounds. About 2,200 (0.71%) showed an effect of 50% or more. The effect is printed as a negative number. This is one part of the list.

Target: human ether-à-go-go-related gene (hERG) potassium channel (human, UniProt Q12809)
Assay: primary screen, population patch clamp on CHO cells stably expressing hERG

Chain of human ether-à-go-go-related gene (hERG) potassium channel (Q12809 whole entry, looked up): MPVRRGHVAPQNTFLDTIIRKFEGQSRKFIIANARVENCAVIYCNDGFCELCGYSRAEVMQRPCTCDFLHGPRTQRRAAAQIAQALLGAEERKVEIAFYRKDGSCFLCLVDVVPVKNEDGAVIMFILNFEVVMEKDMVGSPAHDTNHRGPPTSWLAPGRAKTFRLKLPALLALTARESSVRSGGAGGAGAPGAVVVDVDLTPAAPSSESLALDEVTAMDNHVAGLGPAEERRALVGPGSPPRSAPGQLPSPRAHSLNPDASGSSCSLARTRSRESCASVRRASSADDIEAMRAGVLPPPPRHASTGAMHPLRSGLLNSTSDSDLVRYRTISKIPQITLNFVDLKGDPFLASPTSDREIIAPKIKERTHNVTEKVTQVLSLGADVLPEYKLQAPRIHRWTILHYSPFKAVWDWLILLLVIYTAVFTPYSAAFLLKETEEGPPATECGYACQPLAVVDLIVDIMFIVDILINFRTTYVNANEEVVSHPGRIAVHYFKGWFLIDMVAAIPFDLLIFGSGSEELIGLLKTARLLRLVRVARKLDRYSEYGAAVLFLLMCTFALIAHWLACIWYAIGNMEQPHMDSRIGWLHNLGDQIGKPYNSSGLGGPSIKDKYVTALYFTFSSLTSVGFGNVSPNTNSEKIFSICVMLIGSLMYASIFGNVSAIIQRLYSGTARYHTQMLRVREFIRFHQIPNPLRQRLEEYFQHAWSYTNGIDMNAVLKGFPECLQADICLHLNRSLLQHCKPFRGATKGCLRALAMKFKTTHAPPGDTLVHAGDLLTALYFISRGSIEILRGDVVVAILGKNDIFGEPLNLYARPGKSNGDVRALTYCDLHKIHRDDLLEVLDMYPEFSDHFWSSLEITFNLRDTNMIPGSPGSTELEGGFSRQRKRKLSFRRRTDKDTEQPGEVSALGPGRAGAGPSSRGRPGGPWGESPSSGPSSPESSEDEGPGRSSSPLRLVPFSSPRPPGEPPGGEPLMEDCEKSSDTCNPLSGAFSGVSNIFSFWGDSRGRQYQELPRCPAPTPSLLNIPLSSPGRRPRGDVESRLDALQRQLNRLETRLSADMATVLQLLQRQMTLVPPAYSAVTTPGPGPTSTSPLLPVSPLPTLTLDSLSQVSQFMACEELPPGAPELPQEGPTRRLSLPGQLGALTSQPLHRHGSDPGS

SMILES | hERG current change (%, negative = inhibition) at 1uM
Cc1cc(C)n(Cc2cnc(N3CCOCC3)s2)n1 | 10.9%
Cc1nn(C(=O)C2CC2)c(C)c1Sc1ccc(Cl)cc1 | 16.5%
O=c1cc(Nc2ccc3c(c2)OCCO3)[nH]c(=O)n1C1CCCCC1 | 7.69%
Cc1ccc(S(=O)(=O)NC(=O)c2cc(C)n(CCCn3ccnc3)c2C)cc1 | 4.9%
O=C(COc1ccc(S(=O)(=O)NC2CCCC2)cc1)N1CCCCC1 | 18.2%
FC(F)(F)c1nnc2c(Sc3ccccn3)nc3ccccc3n12 | 6.66%
NC(=O)COC(=O)c1cc(-c2ccco2)nc2ccccc12 | 8.34%
CCc1cccc(CC)c1N(COC)C(=O)Cn1c(CO)nc2ccccc21 | 8.47%
COc1ccc(/C=N/NC(=O)c2ccccc2O)cc1Cn1cc([N+](=O)[O-])cn1 | 12.9%
O=C(NC1CCC(=O)N(CCSc2ccccc2)CC1)OCc1ccccc1 (stereo not shown) | -4.41%
O=C(N/N=C/c1ccc([N+](=O)[O-])cc1)c1ccc2nc[nH]c2c1 | 14%
CC(C)Cn1c(CCCNC(=O)c2ccc(F)cc2)nc2ccccc21 | -4.62%
CN(C)CCN1C(=O)C(O)=C(C(=O)c2cc3ccccc3o2)C1c1cccc(Br)c1 (stereo not shown) | 19.9%
Cc1cccc(Nc2nc(N)c([N+](=O)[O-])c(N3CCOCC3)n2)c1 | -15.5%
COC(CNC(=O)C1CCN(C(=O)c2cc3oc(C)cc3n2Cc2c(F)cccc2Cl)CC1)OC | 16.8%
CCOc1ccccc1C(=O)N1CCN(C(c2ccccc2)c2ccccc2)CC1 | 10.4%
O=[N+]([O-])c1ccc(N2CCN(S(=O)(=O)c3ccc(Cl)c(Cl)c3)CC2)cc1NCCN1CCOCC1 | 8.57%
Cc1ccc(N(CC(=O)N/N=C/c2ccco2)S(=O)(=O)c2ccccc2)cc1 | 7.77%
CCCCC(c1nnnn1Cc1ccco1)N1CCN(C(=O)c2ccco2)CC1.Cl (stereo not shown) | -13.5%
CC12CN(C(=O)c3cccc([N+](=O)[O-])c3)C3(C#N)CC1CCC23C (stereo not shown) | 13.9%
COc1ccc(OC)c(N2C(=O)CC(C(C)c3ccccc3)C2=O)c1 (stereo not shown) | 18%
CCOc1ccc2nc(N(CCN(C)C)C(=O)c3cc4ccccc4cc3OC)sc2c1.Cl | -0.416%
Cc1ccc2c(=O)c(C(=O)c3ccc(F)cc3)cn(CC(=O)NCc3ccco3)c2n1 | 13.1%
O=C(c1cccc(OC(F)F)c1)N1CCN(c2ncccn2)CC1 | 12.4%
Nc1nc(Nc2ccccc2F)nc(N2CCOCC2)c1[N+](=O)[O-] | 15.7%
CCN(CC(=O)Nc1ccc2c(c1)OCCO2)S(=O)(=O)c1ccccc1 | 18.8%
CCOC(=O)CN1CC23C=CC(O2)C(C(=O)NC2CCCCCC2)C3C1=O (stereo not shown) | -3.67%
Cc1nccn1CC(O)COc1ccccc1 (stereo not shown) | 9.26%

SMILES | hERG current change (%, negative = inhibition) at 1uM
COc1cc(C2C(C#N)=C(N)N(Nc3ccccc3)C3=C2C(=O)CC(C)(C)C3)ccc1OCc1cccc(F)c1 (stereo not shown) | 23.8%
Cc1ccc(S(=O)(=O)N2CCOCC2)cc1C(=O)NC(=S)N1CC(C)OC(C)C1 (stereo not shown) | 16.8%
Cc1ccc2oc(C(=O)NCC3CCOCC3)c(C)c2c1 | 10.3%
COc1cccc(-c2nc(NCc3ccco3)c3ccccc3n2)c1O | 7.26%
CCOC(=O)c1cccc(NC(=O)CS(=O)(=O)Cc2nc(-c3cccc(OC)c3)oc2C)c1 | 0.17%
O=C1OCc2cc(NC(=O)C3CCCCC3)ccc21 | 19%
CCC(=O)Nc1ccccc1C(=O)C(=O)Nc1ccccc1 | 2.64%
Cc1ccc(-c2nn(Cc3ccccc3)cc2C(=O)O)cc1 | 13.1%
Cc1ccc(C(=O)O/N=C(\N)c2nonc2N)cc1 | 11.2%
Oc1ccc(-c2n[nH]c(C(F)(F)F)c2-c2ccccc2)c(O)c1 | 8.98%
Cc1cccc(N2CCN(C(=O)CCNS(=O)(=O)c3ccc4c(c3)CCC(=O)N4)CC2)c1C | -10.2%
Cc1ccc(S(=O)(=O)N2CCN(CC(O)c3ccccc3)CC2)cc1C (stereo not shown) | 1.05%
O=C(Nc1ccc(NC(=O)C23CC4CC(CC(C4)C2)C3)cc1)c1cc(F)c(F)cc1Cl | 5.06%
CCn1c(SCC(=O)Nc2ccc(OC)cc2)nc2nc3c(cc2c1=O)COC(C)(C)C3 | -32.8%
O=C(N/C(=C/c1ccccc1F)C(=O)N1CCCCC1)c1ccccc1 | -3.53%
COc1ccc(NC(=O)C(=O)NCCC2CCCCN2S(=O)(=O)c2ccc(F)cc2)cc1 (stereo not shown) | 10.3%
CCOC(=O)c1c(C)[nH]c(C(=O)OCC(=O)Nc2ccc(OC)c(Cl)c2)c1C | 19.9%
COc1cccc(N=Nc2c(N)[nH]n3c(=O)cc(-c4ccccc4)nc23)c1 | -6.89%
Cc1nn(Cc2ccccc2)c2sc(C(=O)N3CCN(Cc4ccc5c(c4)OCO5)CC3)cc12.Cl | 9.2%
Cn1c(SC/C=C/c2ccccc2)nnc1-c1ccco1 | 11.5%
CCC1(C)Cc2c(sc3nnn(CC(=O)Nc4ccc(Cl)cc4)c(=O)c23)CO1 (stereo not shown) | 13.9%
COc1ccc2[nH]c(O)c(N=O)c2c1 | 4.67%
O=C1CC(c2cccc(Br)c2)c2cc3c(cc2N1)CCC3 (stereo not shown) | 8.78%
CCOc1ccc(NC(=O)CSc2ccccc2N)cc1 | 8.44%
CCOc1cc(C=C(C(=O)OC)C(=O)OC)ccc1OCc1ccc([N+](=O)[O-])cc1 | 11.6%
COc1ccc(CCCc2n[nH]c(=S)o2)cc1C | 13.6%
O=C(CSc1nnc(-c2ccncc2)o1)N1CCc2ccccc2C1 | -19.2%
